Some of the results follow.

The test system of the experiment is PfAP2-HC AP2 domain (GST-tagged). Briefly: gcPBM binding intensity (ln(normalized median fluorescence intensity)); higher = stronger DNA binding. The gist of the method: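 Alexa488 anti-GST antibody, scanned at 488 nm, detected GST-tagged P. falciparum DNA-binding domains that had been expressed in E. coli and incubated for 1 h on an Agilent 4 × 180k array. The array carried primer-extended double-stranded 36-bp intergenic genomic probes and negative controls. Binding intensity is the highest Masliner-normalised natural-log median intensity across replicate spots of either orientation of each probe.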
On to “TTATGTGATTTTAATTGTACATAAATATTTGTTAAC [XGTACX_site3489]”, for which the “gcPBM binding intensity (ln)” value stood at 9.37.
For “CACGCATACAGACACACACACACACGGATATAAATA [CACACA_site6445]” the value was 11.6; for “AACAAAAAAACAAACACACACACACGCATATTTATA [CACACA_site7680]”, 11.2.
For “TGAACTCATAGGAAAACACACATATGTGTAATATAT [CACACA_site4267]” the value was 9.9; for “AAATATAGTATTAAAACACACATTTATATAAAAAGG [CACACA_site1482]”, 9.86; for “AAAAACAACACAGATAAATTAACACACACACACATA [XGTACX_negctrl_site588]”, 10.7.
For “AAAGAAAACGGACTTTGTACTTAAATATAATATAAA [XGTACX_site8585]” the value was 9.5; for “TTTTTTTATACAATTTTATATATTAAATATTATAAT [CACACA_negctrl_site226]”, 9.53; for “TAAAGTTATATATTATGTACATATTTGTATACATTT [XGTACX_site2516]”, 9.82.
With CAATAAATCGAAATCGTGCACGGACACATGCAGTAG, the “gcPBM binding intensity (ln)” value was 9.75.
For “GGTTCATTTATATGGAGTACAAAAAATATGTATATA [XGTACX_site8209]” the value was 9.5.
In the case of “ATATATATAATAAGTGGTACAAGTTATTCATTAAAT [XGTACX_site7063]”, the “gcPBM binding intensity (ln)” value stood at 9.77.
For “TTTTTATATAAATAATGTACATTTGGTTTTATTATA [XGTACX_site2125]” the value was 9.61.
For “ACAAAAATATTATATTGTACATTATTAGTTCATATT [XGTACX_site6750]” the value was 9.77; for “AACACCCACAGACACACACACAAAAATGATTAAAAA [CACACA_site2433]”, 10.9.
For “TATTTGTATAAATAAAAATAATATATATCAAATAAC [CACACA_negctrl_site218]” the value was 9.31; for “ATTTGCTCACAAGAAGCACACAAAAAAAGAAAAAAA [CACACA_site9338]”, 9.57; for “CAAAAAATTTGACGTAGTACTTAAAAAAAAAAAAAA [XGTACX_site4523]”, 9.25.
Take “TGTGTGTGTTCATGGGTGCTTTAATACTATTATAGG [GTGCAC_site9465]”: the “gcPBM binding intensity (ln)” value was found to be 10.3.
For “TATTATAAAAATATTCAGATACATTAACTTACTTTT [XGTACX_negctrl_site4]” the value was 9.58; for “TATTTGCTACATATATGTACTAAAAACTTTTTGCTT [XGTACX_site2362]”, 9.79.
For “TATCAATTTTTCTGGCTATCCAATTAGGGGAAGCCA [CACACA_negctrl_site1045]” the value was 9.05; for “TCTTTAACAAGTTAAACACACATACATAAATACATA [CACACA_site5406]”, 9.7.
As to “TTATGTCATAAATGCACACATATACATTGTTTTGAT [CACACA_site646]”, the “gcPBM binding intensity (ln)” value is 9.92.
For “ATATAAATAAACAGGTGTACTATAATGTTCATAGTA [XGTACX_site1553]” the value was 9.81; for “GGGAAAATATTTGGGTGTACAAACAAATTAGCTAGC [XGTACX_site6795]”, 9.63.
For “TATGATTTCACATAATGTACTTGCTAATTCGTGAAT [XGTACX_site1408]” the value was 9.52.
For “AAGAAAATATAAAATGCACACTATAAATTGTATTTA [CACACA_site4257]” the value was 9.79.
Consider “TAATTATATATATATGCATGTTATAATTTTTATTTT [TGCATGCA_site78]”, for which the “gcPBM binding intensity (ln)” value was 9.68.
For “TTTACAGGAAAAAATACACACATTATTTTACCTTAT [CACACA_site2833]” the value was 9.76.
For “CAATAAAAATTAAAATGTACAAATAAATATAAATAT [XGTACX_site7265]” the value was 9.76; for “ACATGCCAAAATCTAATACAATAATAATAAAAAAAA [XGTACX_negctrl_site160]”, 9.58.
For “CATTTACATGCCAACATGCACTGAACAATCTTTATA [GTGCAC_site9797]” the value was 9.68; for “ACAAAACTTTTAAGAACACACAAAAATGTACTATCG [CACACA_site7245]”, 9.67; for “TTTTATGAATAATTATGTACATAACAAATGATATAT [XGTACX_site8318]”, 9.61.
As for “TACAAAAAAAAATAAAATACATATATATATATATAT [XGTACX_negctrl_site608]”, the “gcPBM binding intensity (ln)” value is 10.5.
For “CCCTATATAAATAGCTGTACATTTGAACATGTTCAG [XGTACX_site2187]” the value was 9.48; for “GAAAATGAAATCCTTGCATGTAAAATTAAAATAGAA [TGCATGCA_site569]”, 9.71.
For “GTAGTAATAAATTAAAGTACAGAATATATTATACTA [XGTACX_site2809]” the value was 9.79; for “TTTTTTTCTTAAAGATGTACTTTTTAAAAATAATCT [XGTACX_site1429]”, 9.36.
For “ATGAATTATAAATATTCACACAATATTTTTCATATG [CACACA_site4484]” the value was 9.6; for “AGTGTGCTCAGCTTAGCACAAATTGGAATACCATGT [CACACA_negctrl_site367]”, 9.7.
For the sequence “TAATTATATGTATACACACACATACATTTACATAAC [CACACA_site3238]”, the “gcPBM binding intensity (ln)” value is 10.3.
On to “TTAATTTCTATATACGCATGTATGAATAAGATATTG [TGCATGCA_site202]”, for which the “gcPBM binding intensity (ln)” value stood at 9.36.
For “ATTTTTTTATAAGAAAATTTCTAACGTTAAAAAAAA [CACACA_negctrl_site1367]” the value was 9.22; for “TATAATTATATATATAGTACAGATTTGTTATGTTTA [XGTACX_site7724]”, 9.59; for “CAAACAAACAAATATACACACTTTTGTATAAAGTAA [CACACA_site5860]”, 9.79.
For “AAAAGGGAAATAAAATAAAAAAAGAAACATATATAG [CACACA_negctrl_site455]” the value was 9.61; for “GATTCTTCACCGTACTCACACATATATATATATATA [CACACA_site5665]”, 9.84; for “TCTTTTTTTTTTAAACGTACATTGCATTATCACGTA [XGTACX_site6873]”, 9.6.
For “ATCCATTATTTTTGTTGTACGGGTAACTTTAAAAAG [XGTACX_site2226]” the value was 9.5.
Regarding “TATCTCATAGTATACACACACACACCCACCCATATA [CACACA_site1739]”, the “gcPBM binding intensity (ln)” value came out at 10.7.
For “CACACGCACGAACACACACACACACGCATATAAATA [CACACA_site6302]” the value was 10.9; for “AATATATATATATTCACACATAAAAAAGTAAAAAAA [CACACA_site5040]”, 9.83.
In the case of “GACCATATGAATAATGCACACGTTTTAAAATATTAA [CACACA_site5312]”, the “gcPBM binding intensity (ln)” value turned out to be 9.7.
“TATTTATTATTAAGATGTACATAAAACACTGAATAA [XGTACX_site4246]”: the “gcPBM binding intensity (ln)” value was determined as 9.69.
For “TGAAAAAGGAAAAAAAAAAAAAAAAAAAAAACGAAA [GTGCAC_negctrl_site555]” the value was 9.38; for “ATTAAGACACATTGCACACGTGCACCCATAGAAAAA [CACACA_site408]”, 9.76.
Turning to TATATATATATAATAGTGCATAAATAAATATATAAA, the “gcPBM binding intensity (ln)” value is 9.79.
Take “TTTTAATTAAGACACACACACACATATAAATATGTA [CACACA_site7144]”: the “gcPBM binding intensity (ln)” value is 11.
For “TATCATTTCATATCAAGTACAAACATTTTACATATA [XGTACX_site5307]” the value was 9.52.
For “ATAATAATATATATTGTACACACAAAATGGGAAAAA [CACACA_site8568]” the value was 10.2; for “ATATGTATTTATATATGTTTGATTTTTTTTTTTTTT [TGCATGCA_negctrl_site506]”, 9.53; for “AGGAAAAAAGAAAAAACACACATAAATATATATATA [CACACA_site3085]”, 9.74.
For “CATACAGACATACATACACACATACCTATAAATATA [CACACA_site6995]” the value was 10.3; for “AAATGAAATAAAATCATATATTTATAATTATTATAA [TGCATGCA_negctrl_site612]”, 9.56; for “AAAGAGAACAGAAGTACACACATGTTCTTTTAGTAA [CACACA_site5557]”, 9.85.
ATATTCTGCTGTTTAGTGCAATTATGAAATTATGAT: the “gcPBM binding intensity (ln)” value worked out at 9.55.
Turning to “TAAAAAATAAAAATTGCACACTAAAAAATTACCCAC [CACACA_site5823]”, the “gcPBM binding intensity (ln)” value is 10.2.
For “TTGATTTTTATTTTTAAAATAAATAAATTTCAAATG [TGCATGCA_negctrl_site199]” the value was 9.16; for “TTTTTTTTTCTTTGGTGTACAATGTAATAGAAAATA [XGTACX_site227]”, 9.34; for “AAAAAAAACAAACACACACACAAATATTTATATATT [CACACA_site436]”, 10.5.
For “TAAAAAGAAATGTAAAGTACAAATTTGAATAACATG [XGTACX_site7981]” the value was 9.87; for “AAAAAATTATATAAATGTACATTTTGGCTAGACATG [XGTACX_site5977]”, 9.71; for “TTTTTTTTTGAATATTGTACATATATATTACTTTTA [XGTACX_site5520]”, 9.71.
On to “CATATATATAATTATTCACACAATAGTTAAAAGTAT [CACACA_site5302]”, for which the “gcPBM binding intensity (ln)” value is 9.71.
With “TAGCTCGTTCGGAGCACACACATATATATATATATA [CACACA_site1948]”, the “gcPBM binding intensity (ln)” value came out at 9.71.
For “TACATAAATTAAAACACACACACACTAATAAAAAAA [CACACA_site8712]” the value was 11.3; for “ATATGTATGTATGTATGTACTTATTTATTTATTAAT [XGTACX_site8018]”, 9.75; for “GTTTTATTTTGTTTCTATTTGACACATGTGATTATT [CACACA_negctrl_site1246]”, 10.1.
For “ATTCAATATATATACACACACACTTTTAATAATTAA [CACACA_site3770]” the value was 10.8; for “TGTTAAAATAAAATCTATTACATTTTTATGGTTATA [XGTACX_negctrl_site525]”, 9.31.
For “TCTTGTAAATATATGTGTATATTATATTTTATTATA [TGCATGCA_negctrl_site117]” the value was 9.67; for “CTTAATATTCTTTAAAGTACACAAAATAAGAATATA [XGTACX_site5489]”, 9.28.
“TGCAAGGAAAAACACACACACACATAAATGTATATA [CACACA_site751]”: the “gcPBM binding intensity (ln)” value was determined as 10.4.
As to “ATTTCATATACAAATTGTACATACAATTTTATGTTT [XGTACX_site3240]”, the “gcPBM binding intensity (ln)” value worked out at 9.81.
Regarding “TTAAAAATAATATTATGTACTAAGAATAAATATATA [XGTACX_site3100]”, the “gcPBM binding intensity (ln)” value was 9.56.
“CTAGTAAAAAATGCAAGTACATACATTATAAGTATA [XGTACX_site3908]”: the “gcPBM binding intensity (ln)” value is 9.7.

Values taken from the supplement of paper PMC11417369.
